# Assay results published in article PMC4336329 (PLoS ONE, 2015).
# Screen size: about 310,000 compounds; about 2,200 (0.71%) showed an effect of 50% or more. The effect is printed as a negative number. Some of the results follow.
# Target: human ether-à-go-go-related gene (hERG) potassium channel (human, UniProt Q12809)
# Assay: primary screen, population patch clamp on CHO cells stably expressing hERG
# Chain of human ether-à-go-go-related gene (hERG) potassium channel (Q12809 whole entry, looked up): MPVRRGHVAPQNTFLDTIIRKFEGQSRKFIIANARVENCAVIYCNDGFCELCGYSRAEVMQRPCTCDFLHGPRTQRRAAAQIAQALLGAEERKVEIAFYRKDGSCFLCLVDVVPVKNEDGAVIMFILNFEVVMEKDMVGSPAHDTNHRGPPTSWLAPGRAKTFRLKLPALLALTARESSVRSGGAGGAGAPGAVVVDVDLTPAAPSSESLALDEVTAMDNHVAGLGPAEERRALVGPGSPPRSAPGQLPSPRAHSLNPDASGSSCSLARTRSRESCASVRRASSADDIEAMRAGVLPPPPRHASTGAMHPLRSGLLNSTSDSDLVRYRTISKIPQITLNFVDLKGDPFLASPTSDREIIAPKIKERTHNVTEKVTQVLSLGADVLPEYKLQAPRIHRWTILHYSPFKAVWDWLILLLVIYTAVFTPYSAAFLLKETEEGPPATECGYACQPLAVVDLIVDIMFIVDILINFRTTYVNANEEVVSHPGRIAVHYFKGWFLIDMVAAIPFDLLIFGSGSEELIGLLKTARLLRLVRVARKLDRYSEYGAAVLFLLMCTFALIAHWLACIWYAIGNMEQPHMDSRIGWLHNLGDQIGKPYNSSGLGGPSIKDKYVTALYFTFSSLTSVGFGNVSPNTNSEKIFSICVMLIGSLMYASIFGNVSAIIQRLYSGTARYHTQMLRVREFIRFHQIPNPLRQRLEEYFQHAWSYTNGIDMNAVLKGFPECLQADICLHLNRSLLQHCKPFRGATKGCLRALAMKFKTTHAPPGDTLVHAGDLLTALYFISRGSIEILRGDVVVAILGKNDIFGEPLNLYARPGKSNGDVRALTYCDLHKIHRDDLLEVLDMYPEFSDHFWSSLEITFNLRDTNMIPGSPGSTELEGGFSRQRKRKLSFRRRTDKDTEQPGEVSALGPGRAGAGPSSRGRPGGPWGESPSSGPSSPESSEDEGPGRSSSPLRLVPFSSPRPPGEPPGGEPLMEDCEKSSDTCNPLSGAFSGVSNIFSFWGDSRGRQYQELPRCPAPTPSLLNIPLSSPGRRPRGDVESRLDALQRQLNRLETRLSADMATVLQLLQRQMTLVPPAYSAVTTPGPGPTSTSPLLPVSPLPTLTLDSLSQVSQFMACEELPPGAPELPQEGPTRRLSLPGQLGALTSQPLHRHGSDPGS
row,SMILES,"hERG current change (%, negative = inhibition) at 1uM [%]"
1,Cc1nc2nc(SCC(=O)Nc3cccc(F)c3)[nH]c2cc1Br,20.4
2,COCCNC(=O)CSc1cc(=O)n(C)c2cc(Cl)ccc12,9.17
3,COc1cc(OC)cc(-n2nc(C(=O)N3CCC4(CC3)OCCO4)c3ccccc3c2=O)c1,8.66
4,COc1ccc(Br)cc1C1N2CC3(C)CN1CC(C)(C2)C3=O (stereo not shown),8.45
5,CCc1nnc(NC(=O)c2ccc(S(=O)(=O)N3CCCCCC3)cc2)s1,9.63
6,O=C(CN1CCN(S(=O)(=O)c2ccc3ccccc3c2)CC1)Nc1ccc2c(c1)CCC2,16.5
7,C=CCN(c1ccc(F)cc1)S(=O)(=O)c1cc(C(=O)NC2CCC(O)CC2)ccc1Cl (stereo not shown),-1.9
8,Cc1ccc(-c2cc(C(=O)[O-])c3cc(Br)ccc3n2)s1.[K+],13.3
9,COc1ccc(CCN(C)Cc2ccc(F)cc2F)cc1OC,-2.08
10,CCOC(=O)c1ccc(NC(=S)N2CCCC2c2ccc(OC)c(OC)c2)cc1 (stereo not shown),10.6
11,CCN1CCN(CCCNC(=O)C(=O)c2c(C)[nH]c3ccccc23)CC1,6.58
12,Cc1cc2cc(CNC(=O)Nc3ccccc3)ccc2[nH]1,11.4
13,Cc1[nH]n(-c2ccc(F)cc2)c(=O)c1C=Nc1ccc(S(=O)(=O)N(C)C)cc1,10.5
14,Nn1c(C2COc3ccccc3O2)n[nH]c1=S (stereo not shown),9.56
15,Cc1cc(C)n(C2=NS(=O)(=O)c3ccccc32)n1,11.8
16,COC(=O)c1c(NC(=O)c2cnccn2)sc2c1CCC2,24.1
17,COCCCNC(=O)c1cn(-c2cccc(OC)c2)c(=O)c2ccccc12,17.4
18,O=C(Nc1ccc(-c2noc(COc3ccccc3Cl)n2)cc1)c1ccco1,5.38
19,Cc1cn(S(=O)(=O)c2ccc(Br)c3ccccc23)cn1,9.99
20,CC(=O)Nc1ccc(NC(=O)c2ccc3c(c2)C(=O)N(c2ccccc2C)C3=O)cc1,7.63
21,O=C1C(Cc2ccccc2)SC(=Nc2ccccc2)N1c1ccccc1 (stereo not shown),16.2
22,CC(=O)O[C@@H]1C[C@H]2C(C)(C)C(=O)C=C[C@]2(C)[C@H]2CC[C@@]3(C)[C@H](c4ccoc4)OC(=O)[C@H]4O[C@]43[C@@]21C,1.89

row,SMILES,"hERG current change (%, negative = inhibition) at 1uM [%]"
1,CC(=O)Nc1ccc(NS(=O)(=O)c2ccc(OC(C)C(=O)N3CCOCC3)cc2)cc1 (stereo not shown),0.684
2,COc1cccc(N2[C@@H](CC(C)=O)c3cc(C(F)(F)F)ccc3S2(=O)=O)c1,11.6
3,Cc1ccccc1-c1cc(C(=O)n2cccn2)c2cc(Cl)ccc2n1,10.5
4,Cc1ccc(CNCCCSc2ncccn2)cc1,-0.37
5,Cc1cc(-c2ccc(/C=N/n3cnnc3)o2)c(C)c([N+](=O)[O-])c1,12
6,Cc1c(Cl)cccc1NC(=O)CCCn1cnc([N+](=O)[O-])n1,9.67
7,CCN(CC)C(=O)COc1cc(C)cc2oc(=O)cc(-c3ccccc3)c12,-8.08
8,CS(=O)(=O)N(CC(=O)NCC1CCCO1)c1cccc(Cl)c1 (stereo not shown),16.2
9,Cc1ccc(/C=N/NC(=O)c2nc3nc(C)cc(C)n3n2)cc1,10.6
10,O=C(Nc1ccn(Cc2cccc3ccccc23)n1)c1cccnc1,8.02
11,Cc1nc2nc[nH]n2c(=O)c1CC(=O)O,7.68
12,COc1cc(NC(=O)Cn2cnc(S(=O)(=O)N3CCCC3)c2)cc(OC)c1OC,12.4
13,Cc1cccc(C(=O)NCC(c2ccco2)N2CCc3ccccc32)c1 (stereo not shown),0.922
14,COc1cc(NC(=O)C2CC(=O)NC3=C2C(=O)CC(C)(C)C3)c(OC)cc1Cl (stereo not shown),4.42
15,COCCNC(=O)C(=O)NCC1OCCN1S(=O)(=O)c1ccc(F)cc1 (stereo not shown),10.8
16,C/C(CC(=O)Nc1cccc(Cl)c1)=N\NC(=O)Cc1ccc(Cl)cc1,0.952
17,O=c1c(Cl)c(N2CCCCC2)cnn1-c1nc2ccccc2[nH]1,-12.3
18,COc1cc(Br)ccc1NC(=O)c1ccccc1-c1ccccc1C(=O)O,19.3
19,Cc1cc(Cl)ccc1OCCCC(=O)OCC(N)=O,1.7
20,CCOc1cc(CNn2cnnc2)cc(Cl)c1OCC(=O)NC(C)(C)C,7.82
21,Cc1ccc(S(=O)(=O)N(C)c2ccc(C(=O)NCC3(N(C)C)CCCCC3)cc2)cc1,-43.9
22,COc1ccccc1C(=O)Nc1ccon1,-0.0061

row,SMILES,"hERG current change (%, negative = inhibition) at 1uM [%]"
1,C/C(=N\NC(=O)c1nnn(-c2nonc2N)c1C(C)C)c1cc(C)sc1C,15.7
2,CC(=O)COc1c(-c2ccco2)oc2ccccc2c1=O,11.6
3,O=C(CN(CC1CCCO1)S(=O)(=O)c1ccc(S(=O)(=O)NC2CC2)cc1)Nc1ccccc1 (stereo not shown),-2.75
4,CSc1ccccc1OCc1cc(C(=O)N2CCN(c3ncccn3)CC2)no1,11.7
5,Cc1cccc(Nc2ncnc3c2cnn3C)c1,3.12
6,COCCn1c(-c2ccc(Cl)cc2Cl)nc2c(c(=O)c3ccccc3n2C)c1=O,13.6
7,CCO[C@H]1OC(C(=O)O)=C[C@@H](c2ccc3c(c2)OCO3)[C@@H]1CCCO,15.8
8,CS(=O)(=O)Nc1ccc(C(=O)NCCSCc2ccco2)cc1,-19.4
9,Fc1ccc(N2CCN(Cc3nnc(-c4ccccc4)o3)CC2)cc1,4.54
10,COC(=O)c1ccc(CNC(=O)c2coc3ccccc3c2=O)cc1,10.5
11,O=C(N/N=C/c1c(O)ccc2ccccc12)c1cccnc1,12.6
12,Cc1nc(NC(=O)CCN2C(=O)C3CC=CCC3C2=O)sc1C (stereo not shown),4.96
13,Cc1ccc(NC(=S)Nc2c(C)n(C)n(-c3ccccc3)c2=O)cc1,1.01
14,CCN(C(=O)c1cc2c(=O)n3ccccc3nc2n1C)C1CCCCC1,11.5
15,O=C(O)CCc1ccc(-c2ccc(Cl)cc2)n1CC(=O)O,13.9
16,O=C(Nn1cnnc1)c1cc(-c2ccccn2)nc2ccccc12,5.15
17,COc1ccc(-c2csc3nc(-c4cccnc4)nc(N4CCC(C(N)=O)CC4)c23)cc1OC,1.65
18,Cc1c(S(=O)(=O)NC2CCCCC2)c(=O)n(C)c(=O)n1C,3.74
19,CSc1ccc(CN2CCN(C(=O)COc3ccc(C)cc3)CC2)cc1.O=C(O)C(=O)O,-19.3
20,CC(C)NC(=O)Cn1c(SCC(=O)c2ccc(F)cc2)nc2ccccc21,20.2
21,O=C1CC(N2CCC(O)(c3ccc(Cl)cc3)CC2)C(=O)N1 (stereo not shown),2.43
22,CC(=O)c1cccc(N=Nc2c(C)[nH]c3ccccc23)c1,21.1

row,SMILES,"hERG current change (%, negative = inhibition) at 1uM [%]"
1,CCCCCC1CC(CC(=O)NC(=S)Nc2ccccc2Cl)C(=O)O1 (stereo not shown),3.16
2,COc1cc2c(cc1OC)C1(NCC2)C(=O)Nc2ccccc21 (stereo not shown),3.44
3,Cc1ccc(NC(=O)Nc2ccc(F)c(Cl)c2)cc1,7.76
4,Cc1ccc(S(=O)(=O)NC(CC(C)C)C(=O)Nc2nccs2)cc1 (stereo not shown),13
5,CNC(=O)COc1ncnc2scc(-c3ccc(F)cc3)c12,13.9
6,O=C(CN1C(=O)CCOc2ccccc21)Nc1cccc(S(=O)(=O)N2CCOCC2)c1,2.46
7,CCc1c(C)nc(SCC(=O)N2CCCCC2CC)[nH]c1=O (stereo not shown),8.43
8,Cc1[nH]c(=O)[nH]c(=O)c1/C=C/C(=O)O,4.57
9,Cc1ccccc1C(=O)N1CCC(C(=O)Nc2ccc3c(c2)OCCO3)CC1,12
10,Cc1cnc(SCc2ccc(Cl)cc2Cl)[nH]c1=O,12.7
11,O=C(Nc1cccc(O)c1)c1cc(-c2ccccc2Cl)on1,18
12,CS(=O)(=O)N1CCCC(C(=O)c2cccc(Cl)c2)C1 (stereo not shown),22.1
13,COc1cc2c(cc1OC)CN(CC(=O)Nc1cccc(C)c1)CC2,10.6
14,COc1ccc(C(=O)C2CCCN(Cc3cc(C)c(O)c(C)c3)C2)c(OC)c1 (stereo not shown),-0.499
15,NCCNC(=O)Cc1cccc(NC(=O)Cc2ccc(Nc3ncnc4c3ncn4[C@@H]3O[C@H](CO)[C@@H](O)[C@H]3O)cc2)c1,14.4
16,Cc1ccc(S(=O)(=O)Nc2ccc(N3CCOCC3)cc2)cc1C,9.57
17,O=C(Nc1cccc(-c2nnc(-c3ccco3)o2)c1)c1ccccc1,-5.05
18,O=C(Nc1cc2c3c(c1)CC(=O)N3CCC2)c1ccc(F)cc1,3.93
19,COc1ccc(C(C)(C)C)cc1S(=O)(=O)n1ccnc1C,13.8
20,O=S(=O)(Cc1ccccc1)N1CCCC1,10.9
21,CC1=C(C(=O)N2CCOCC2)C(c2ccc(OC(F)F)cc2)NC(=S)N1c1ccccc1 (stereo not shown),3.86
22,CNC(=O)c1[nH]cnc1C(=O)Nc1cccc(Cl)c1,-6.99
